Reference: PubChem BioAssay AID1346428 (National Center for Advancing Translational Sciences (NCATS), 2018)
Values joined by “and” are separate entries in the source; they are usually repeats but may differ in a detail not shown here. Equal entries are not always repeated. Out of some 48,000 compounds screened, about 1,200 (2.5%) were called active. Roughly 2% stayed inconclusive and do not appear here.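 The calls were made as follows: active = activation of at least 60% and not above a set upper limit (about 1 call in 100 departs from these limits); inconclusive = activation of 40% to 60%, or above that upper limit; inactive = activation under 40%.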 Some of the results follow.

molecular target: Probable G-protein coupled receptor 32 (Homo sapiens) (UniProt O75388); experiment: qHTS for Agonists of Human Resolvin D1 Receptor DRV1; details: CHO-K1 GPR32 beta-arrestin PathHunter luminescence, 90 min; at 76.9 µM; hits give high values; zero percent set by DMSO-only wells; also: 0% is about no effect
Sequence of UniProt O75388 (O75388 whole entry, looked up): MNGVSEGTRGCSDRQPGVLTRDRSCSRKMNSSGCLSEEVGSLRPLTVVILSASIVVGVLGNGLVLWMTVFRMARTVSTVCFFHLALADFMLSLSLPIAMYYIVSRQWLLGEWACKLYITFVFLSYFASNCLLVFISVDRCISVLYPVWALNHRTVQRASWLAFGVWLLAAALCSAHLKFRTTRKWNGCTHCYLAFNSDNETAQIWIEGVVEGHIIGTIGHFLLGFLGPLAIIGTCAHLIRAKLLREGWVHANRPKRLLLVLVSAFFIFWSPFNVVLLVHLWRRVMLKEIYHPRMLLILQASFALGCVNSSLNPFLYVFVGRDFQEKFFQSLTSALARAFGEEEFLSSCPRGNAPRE
Method in brief: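 Engineered CHO-K1 line co-expressing GPR32-ProLink and EA-beta-arrestin. Compound treatment lasted 90 min at 37 °C. Luminescence was recorded after 1 h with substrate at ambient temperature, relative to DMSO basal wells.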

activation, inactive:
Cc1ccc(NCc2ccccc2-c2nnc(-c3ccccc3Cl)o2)cc1Cl -8.54%
COc1ccc(N2C(=O)CSC23C(=O)N(CC(=O)NCc2ccccc2)c2ccccc23)cc1 (stereo unspecified) -9.98%
Cc1cc(Nc2ccccc2Cl)n2nc(-c3ccco3)nc2n1 11.5%
COc1ccc(NC(=O)NCc2cccn2Cc2ccc(F)cc2)cc1OC 29.7%
COc1ccc(OC)c(NC(=O)c2c(NCc3ccc(C)o3)sc3c2CCCCC3)c1 -19.2%
COc1cccc(NC(=O)N(Cc2cn(C)c3ccccc23)C2CCCCC2)c1 -41.2%
COc1cc(C2C(C(=O)OC(C)C)=C(C)N=C3SCCC(=O)N32)ccc1OCc1ccccc1 (stereo unspecified) -0.825%
O=c1oc2ccccc2cc1-c1nc(-c2cccc(Cl)c2)cs1 9.79%
CC[N+](CC)(CC)CCOc1cccc(OCC[N+](CC)(CC)CC)c1OCC[N+](CC)(CC)CC 24% and -7.03%
COc1ccccc1N1CCN(c2ncc3c(n2)CCN(Cc2ccc(C)s2)C3)CC1 -13.2%
COc1ccc(Cl)cc1NC(=O)CSc1nc(-c2cccs2)cc(C(F)(F)F)n1 -3.79%
CCN(CC)C(=O)Cn1cc(SCC(=O)Nc2cc(OC)ccc2OC)c2ccccc21 -13.5%
Cc1ccc(Cl)cc1N1CCN(C(=O)c2sc3nc4n(c(=O)c3c2C)CCC4)CC1 -6.01%
CN(C)CCNC(=O)c1ccc2nc(Cc3ccccc3)oc2c1 -18.2%
COc1ccc(Cl)cc1NC(=O)CSc1cc(C)[nH]c(=O)n1 -9.88%
Cc1cccn2c(=O)cc(CSc3nnc(NC(=O)C(C)C)s3)nc12 -5.83%
Cc1ccccc1C(=O)Nc1sc2c(c1C(=O)N1CCCCC1)CCC(C(C)(C)C)C2 (stereo unspecified) -20.8%
CCC(CC)C(=O)Nc1ccc2nc(SCC(=O)N3CCOCC3)sc2c1 -8.09%
COc1ccc(C(=O)NCC(c2ccc(N(C)C)cc2)N2CCOCC2)cc1 (stereo unspecified) 14.3%
Cc1ccc(CSc2nc3ccc(NC(=O)CC(C)C)cc3s2)cc1 33.4%
CCC(C)n1c(SCc2ccc(F)cc2Cl)nc2ccsc2c1=O (stereo unspecified) -15.7%
CCOC(=O)c1noc2ncn(Cc3ccc([N+](=O)[O-])cc3)c(=O)c12 -11.6%
CSc1ccc(CCNC(=O)c2c(C)nn(-c3ccc(F)cc3)c2-n2cccc2)cc1 -7.31%
Cc1cc(=O)n2nc(N3CCC(C(=O)NCCCOC(C)C)CC3)sc2n1 9.71%
Cc1cc(NC(=O)c2oc3c(c2C)-c2[nH]ncc2CC3)ccc1Br -4.53%
Cc1nn(-c2ccc(F)cc2)c(-n2cccc2)c1C(=O)N1CCCCC1C (stereo unspecified) 20.8%
O=C(CC1NCCNC1=O)Nc1ccc(F)c(Cl)c1 (stereo unspecified) -7.93%
NS(=O)(=O)c1cc2c(cc1Cl)NC(CC1CCCC1)NS2(=O)=O (stereo unspecified) -9.01%
O=C(CSc1nnc(CNC(=O)c2ccccc2)n1-c1ccc(F)cc1)Nc1ccccc1F -7.75%
COc1ccc(Nc2ncc(C(=O)Nc3ccc(F)cc3F)c3ccccc23)cc1 -8.29%
CCCCOc1ccc(C(=O)Nc2sc3c(c2C(=O)OCC)CCCCC3)cc1 -22.2%
COc1ccccc1N1CCN(S(=O)(=O)c2ccc3c(c2)CCCN3C(C)=O)CC1 -16.9%
CCOCCCn1c(SCC(=O)Nc2ccc(F)cc2)nc2c(sc3ccccc32)c1=O 26.9%
CCC(C(=O)Nc1cc(-c2cn3cccnc3n2)ccc1C)c1ccccc1 (stereo unspecified) -19.9%
CCc1cccc(NC(=O)Cn2c(-c3ccc(F)cc3)cc(C(C)=O)c2C)c1 -6.16%
O=C(c1ccc2c(c1)N(Cc1ccccc1Cl)C(=O)c1ccccc1S2)N1CCCC1 -30.5%
CCCCNS(=O)(=O)c1ccc(NC(=O)c2c(-c3ccccc3)noc2C)cc1 2.28%
CC(C)(C)NCC(O)c1cc(O)cc(O)c1 (stereo unspecified) 14.3% and 3%
CCc1ccccc1-n1c(SCC(=O)Nc2ccc(C)cc2)nc2n[nH]c(C)c2c1=N -7.23%
Nc1nc2nc(-c3ccccc3)cc(=O)n2[nH]1 -0.555%
Cc1ccccc1CNC(=O)CN1CCSc2ccccc21 6.04%
Cc1cccc(NS(=O)(=O)c2ccc3c(c2)n(C)c(=O)n3C)c1C 7.27%
Fc1ccc(CNc2nc(-c3ccc(Cl)cc3)cc(C(F)(F)F)n2)cc1 -0.0466%
Cc1ccc(NC(=O)C2CCN(S(=O)(=O)c3ccc4c(c3)CCCC(=O)N4)CC2)c(Br)c1 -3.52%
COc1ccc(NC(=O)CN2CCCN(Cc3ccccc3)S2(=O)=O)cc1 -5.2%
O=C(CSc1nc2ccccc2nc1Cc1ccc(Cl)cc1)N1CCCCC1 -7.27%
CCCCOC(=O)c1ccc(NC(=O)c2ccc3c(c2)CCCN3S(C)(=O)=O)cc1 -9.73%
O=C(Cn1c(=O)n(-c2ccccc2)c(=O)c2c3c(sc21)CCC3)c1ccc(Br)cc1 -10.6%
CCOC(=O)c1c(C)oc2ccc(N(C(=O)c3ccncc3)S(=O)(=O)c3ccc(F)cc3C)cc12 -12.7%
Cc1ccc2nc(-c3ccc(Cl)c(NC(=O)COc4ccc([N+](=O)[O-])cc4)c3)oc2c1 -4.79%
COc1cccc(NC(=O)c2cnc(SCC(=O)N3CCCc4ccccc43)n(C)c2=O)c1 -13.5%
COc1ccccc1N1CCN(S(=O)(=O)c2cc(C(=O)Nc3ccc(Oc4ccccc4)cc3)ccc2F)CC1 -3.4%
Cc1cccc(CS(=O)(=O)Cc2ccc(C(=O)NCc3ccc(F)cc3)o2)c1 -7.21%
CC(C)CCNC(=O)CCCn1c(=O)c2cccn2c2ccccc21 -13.6%
CCN(C(=O)c1cc2c(=O)oc3ccccc3c2s1)c1ccccc1F 13.2%
Cc1noc(-c2ccc(-c3noc(-c4ccc(Cl)cc4)n3)cc2)n1 9.87%
Cc1cc(C)cc(NC(=O)CN2C(=O)c3ccccc3Sc3ccc(C(=O)N4CCCC4)cc32)c1 -17.6%
Cc1ccc(C)c(CN2CCCN(Cc3ccccc3C)S2(=O)=O)c1 -26.4%
COc1ccccc1NC(=O)CSc1nnc2c(n1)[nH]c1ccccc12 3.53%
O=C(CN1C(=O)CCc2cc(Br)ccc21)Nc1ccc(OC(F)(F)F)cc1 -7.78%
CCOC(=O)c1ccc(Nc2c(-c3ccc(N(C)C)cc3)nc3nc[nH]n23)cc1 -27%
COc1ccc(NC(=O)c2cnc3cc(C)ccn3c2=O)c(OC)c1 4.1%
COc1cccc(CNC(=O)c2nn(C)c3c2CSc2ccccc2-3)c1 -14.4%
COc1ccc(Cn2c(=O)n(-c3ccc(C)cc3)c(=O)c3c2c2cc(C)ccc2n3C)cc1 14%
Cc1ccc(-n2nc(CO)c(C(=O)NCc3cccnc3)n2)cc1C -11.2%
COc1ccc(-c2noc(-c3nnn(-c4ccc(C)cc4C)c3C)n2)cc1 -12.1%
COc1ccc(NC(=O)CSC2=Nc3ccccc3C3=NC(CCC(=O)NC4CCCCC4)C(=O)N23)cc1Cl (stereo unspecified) -9.87%
COc1ccc(S(=O)(=O)c2cn(C)c3cc(N4CCCCCC4)c(F)cc3c2=O)cc1 0.282%
CCOC(=O)c1cc(NC(=O)c2ccccc2)c(=O)n2c1oc1ccc(Cl)cc12 -0.0293%
CCOc1ccccc1CNS(=O)(=O)c1ccc(-c2cnc(C3CC3)o2)cc1 8.97%
Cc1ccc(NC(=O)CSc2nncn2C)c(C)c1 -3.36%
O=C(Nc1cc(F)ccc1F)C1CCN(C(=O)c2cnn(-c3ccccc3)c2-n2cccc2)CC1 23.4%
COc1ccc(Cl)c2sc(NC(=O)c3ccc(S(=O)(=O)N4CCCC4)cc3)nc12 9.83%
COc1ccc(OC)c(C2CC(=O)Nc3c2c(=O)n(C)c2ncnn32)c1 (stereo unspecified) -11.3%
COc1ccccc1NC(=O)CSCc1cc(=O)c2cccc(Cl)c2[nH]1 32.2%
O=C(CSC1=Nc2ccccc2C2=NC(Cc3ccccc3)C(=O)N12)Nc1cccc(Cl)c1 (stereo unspecified) -22.6%
COc1ccccc1Cn1c(C2CC(=O)N(c3ccccc3OC)C2)nc2ccccc21 (stereo unspecified) -4.6%
NCc1ccc(S(N)(=O)=O)cc1 -5.6%
CCN1C(=O)c2ccccc2Sc2ccc(NC(=O)Nc3cc(C)cc(C)c3)cc21 -6.68%
CCOC(=O)c1c(-c2ccccc2)oc2ccc(NS(=O)(=O)c3ccc(C)cc3)cc12 -11.2%
CCc1ccc2occ(CC(=O)Nc3c(C(=O)c4ccccc4)oc4ccccc34)c2c1 -8.36%
Cc1ccc(CNC(=O)c2cc3sc(Cl)cc3n2C)cc1 4.97%
Cc1ccnc(NC(c2cccc(O)c2)c2ccc3ccc(C)nc3c2O)c1 (stereo unspecified) -51.9%
COc1ccc(-c2nc3n(n2)C(c2ccc(O)cc2)C(C(=O)Nc2cccnc2)=C(C)N3)cc1OC (stereo unspecified) 4.33%
O=C(Nc1cccc(Br)c1)c1cc(S(=O)(=O)N2CCCCC2)c[nH]1 -2.03%
Cc1cc(S(=O)(=O)Nc2cc3c(cc2N2CCOCC2)n(C)c(=O)c(=O)n3C)ccc1F -0.244%
